Test results as given in the supplement of paper PMC10037445.
Values joined by “and” are separate entries in the source; they are usually repeats but may differ in a detail not shown here. Equal values may be shown once. Whole data set: some 2,900 compounds, median “NF-kB SEAP reporter activity, fold change vs agonist alone” near 0.99, cut for the highest 2% near 2.6. The list shows a part of the results.

What was measured:
RAW-Dual [1] = assay: NF-kB SEAP reporter activity, fold change vs agonist alone; higher = enhanced NF-kB activity; details: library stock concentration (final ~1000-fold dilution): 10 mM
Procedure, shortened: (§1)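 Reporter activity is given as fold change relative to agonist-alone wells. To measure it, 50 nL of library stock was pin-tooled onto RAW-Dual macrophages (50,000 cells/well, DMEM, 384-well plates), a PRR agonist followed 1 h later, and cells stayed at 37 °C, 5% CO2. Twenty hours on, supernatant was assayed for IRF (QuantiLuc luminescence) and NF-κB (QuantiBlue, 620 nm absorbance), and wells under 70% of agonist-control IncuCyte confluency in both mask sets were marked cytotoxic.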

RAW-Dual [2] = assay: NF-kB SEAP reporter activity, fold change vs agonist alone; cytotoxicity flag (confluency mask): not cytotoxic; higher = enhanced NF-kB activity
Procedure, shortened: as §1

RAW-Dual [3] = assay: NF-kB SEAP reporter activity, fold change vs agonist alone; cytotoxicity flag (confluency mask): cytotoxic (confluency <70% of control); higher = enhanced NF-kB activity
Procedure, shortened: as §1

[4] = cytotoxicity flag (confluency mask): not cytotoxic, agonist: Imiquimod (TLR7) […]
[5] = cytotoxicity flag (confluency mask): not cytotoxic, agonist: MPLA (TLR4) […]
[6] = agonist: ODN 1826 (TLR9) 0.5 ug/mL
[7] = agonist: Pam2CSK4 (TLR2/6) 0.1 ug/mL
[8] = agonist: Pam3CSK4 (TLR2/1) 0.1 ug/mL

CS(=O)(=O)O.Cc1ccc(N(CC2=NCCN2)c2cccc(O)c2)cc1
NF-kB SEAP reporter activity (RAW-Dual [1]; [4]): 1.15 | NF-kB SEAP reporter activity (RAW-Dual [1]; [5]): 1.03

CS(=O)(=O)O.Cc1ccc(N(CC2=NCCN2)c2cccc(O)c2)cc1 (library stock concentration (final ~1000-fold dilution): 10 mM)
NF-kB SEAP reporter activity (RAW-Dual [2]; agonist: LPS (TLR4) 0.1 ug/mL): 1.13 | NF-kB SEAP reporter activity (RAW-Dual [2]; [6]): 0.764 | NF-kB SEAP reporter activity (RAW-Dual [2]; [7]): 0.962 | NF-kB SEAP reporter activity (RAW-Dual [2]; [8]): 0.933

NC(=O)c1ccc(OCCCN2CC3CCCC3C2)cc1 (configuration not stated)
NF-kB SEAP reporter activity (RAW-Dual [1]; [4]): 0.844 | NF-kB SEAP reporter activity (RAW-Dual [1]; [5]): 1.05

NC(=O)c1ccc(OCCCN2CC3CCCC3C2)cc1 (configuration not stated) (library stock concentration (final ~1000-fold dilution): 10 mM)
NF-kB SEAP reporter activity (RAW-Dual [2]; agonist: LPS (TLR4) 0.1 ug/mL): 0.976 | NF-kB SEAP reporter activity (RAW-Dual [2]; [6]): 0.696 | NF-kB SEAP reporter activity (RAW-Dual [2]; [7]): 0.926 | NF-kB SEAP reporter activity (RAW-Dual [2]; [8]): 1.14

CC(=O)OC1CCC2(C)C(=CCC3C2CCC2(C)C(c4cccnc4)=CCC32)C1 (configuration not stated)
NF-kB SEAP reporter activity (RAW-Dual [1]; [4]): 1.12 | NF-kB SEAP reporter activity (RAW-Dual [1]; [5]): 1.05

CC(=O)OC1CCC2(C)C(=CCC3C2CCC2(C)C(c4cccnc4)=CCC32)C1 (configuration not stated) (library stock concentration (final ~1000-fold dilution): 10 mM)
NF-kB SEAP reporter activity (RAW-Dual [2]; agonist: LPS (TLR4) 0.1 ug/mL): 0.898 | NF-kB SEAP reporter activity (RAW-Dual [2]; [6]): 1.06 | NF-kB SEAP reporter activity (RAW-Dual [2]; [7]): 0.97 | NF-kB SEAP reporter activity (RAW-Dual [2]; [8]): 1.97

CC1=NN(c2ccc(C)c(C)c2)C(=O)/C1=N\Nc1cccc(-c2cccc(C(=O)O)c2)c1O.NCCO.NCCO
NF-kB SEAP reporter activity (RAW-Dual [1]; [4]): 1.57 | NF-kB SEAP reporter activity (RAW-Dual [1]; [5]): 1.64

CC1=NN(c2ccc(C)c(C)c2)C(=O)/C1=N\Nc1cccc(-c2cccc(C(=O)O)c2)c1O.NCCO.NCCO (library stock concentration (final ~1000-fold dilution): 10 mM)
NF-kB SEAP reporter activity (RAW-Dual [2]; agonist: LPS (TLR4) 0.1 ug/mL): 2.92 | NF-kB SEAP reporter activity (RAW-Dual [2]; [6]): 1.31 | NF-kB SEAP reporter activity (RAW-Dual [2]; [7]): 1.58 | NF-kB SEAP reporter activity (RAW-Dual [2]; [8]): 1.34

CCOC(=O)/C=C/c1ccc(O)c(O)c1 (library stock concentration (final ~1000-fold dilution): 10 mM)
NF-kB SEAP reporter activity (RAW-Dual [2]; agonist: LPS (TLR4) 0.1 ug/mL): 0.633 and 0.814 | NF-kB SEAP reporter activity (RAW-Dual [2]; [6]): 0.407 and 0.651 | NF-kB SEAP reporter activity (RAW-Dual [2]; [7]): 0.658 and 0.524 | NF-kB SEAP reporter activity (RAW-Dual [2]; [8]): 0.563 and 0.481

O=C(Oc1cc(S(=O)(=O)c2ccccc2)ccc1[N+](=O)[O-])c1ccc(Cl)cc1 (library stock concentration (final ~1000-fold dilution): 10 mM)
NF-kB SEAP reporter activity (RAW-Dual [2]; agonist: LPS (TLR4) 0.1 ug/mL): 5.2

O=C(Oc1cc(S(=O)(=O)c2ccccc2)ccc1[N+](=O)[O-])c1ccc(Cl)cc1
NF-kB SEAP reporter activity (RAW-Dual [1]; [5]): 2.59

Cc1ccc(=O)n(-c2ccccc2)c1 (library stock concentration (final ~1000-fold dilution): 10 mM)
NF-kB SEAP reporter activity (RAW-Dual [2]; agonist: LPS (TLR4) 0.1 ug/mL): 1.15 | NF-kB SEAP reporter activity (RAW-Dual [2]; [6]): 1.03 | NF-kB SEAP reporter activity (RAW-Dual [2]; [7]): 0.979 | NF-kB SEAP reporter activity (RAW-Dual [2]; [8]): 1.14

Cc1ccc(=O)n(-c2ccccc2)c1
NF-kB SEAP reporter activity (RAW-Dual [1]; [4]): 1.04 | NF-kB SEAP reporter activity (RAW-Dual [1]; [5]): 1.07

N#Cc1cc2cc(CN3CCC(Nc4ncnc5sc(CC(F)(F)F)cc45)CC3)ccc2[nH]1
NF-kB SEAP reporter activity (RAW-Dual [1]; [4]): 1.15 | NF-kB SEAP reporter activity (RAW-Dual [1]; [5]): 1.25

N#Cc1cc2cc(CN3CCC(Nc4ncnc5sc(CC(F)(F)F)cc45)CC3)ccc2[nH]1 (library stock concentration (final ~1000-fold dilution): 10 mM)
NF-kB SEAP reporter activity (RAW-Dual [2]; agonist: LPS (TLR4) 0.1 ug/mL): 1.57 | NF-kB SEAP reporter activity (RAW-Dual [2]; [6]): 0.19 | NF-kB SEAP reporter activity (RAW-Dual [2]; [7]): 1.1 | NF-kB SEAP reporter activity (RAW-Dual [2]; [8]): 0.795

CC(=O)OCC1OC([S-])C(OC(C)=O)C(OC(C)=O)C1OC(C)=O.CCP(CC)CC.[Au+] (configuration not stated) (library stock concentration (final ~1000-fold dilution): 10 mM)
NF-kB SEAP reporter activity (RAW-Dual [3]; agonist: LPS (TLR4) 0.1 ug/mL): 0.177 | NF-kB SEAP reporter activity (RAW-Dual [3]; [6]): 0.184 | NF-kB SEAP reporter activity (RAW-Dual [3]; [7]): 0.0867 | NF-kB SEAP reporter activity (RAW-Dual [3]; [8]): 0.137

CC(=O)OCC1OC([S-])C(OC(C)=O)C(OC(C)=O)C1OC(C)=O.CCP(CC)CC.[Au+] (configuration not stated)
NF-kB SEAP reporter activity (RAW-Dual [1]; cytotoxicity flag (confluency mask): cytotoxic (confluency <70% of control), agonist: Imiquimod (TLR7) […]): 0.212 | NF-kB SEAP reporter activity (RAW-Dual [1]; cytotoxicity flag (confluency mask): cytotoxic (confluency <70% of control), agonist: MPLA (TLR4) […]): 0.215

COC1CC2CCC(C)C(O)(O2)C(=O)C(=O)N2CCCCC2C(=O)OC(C(C)CC2CCC(OP(C)(C)=O)C(OC)C2)CC(=O)C(C)C=C(C)C(O)C(OC)C(=O)C(C)CC(C)C=CC=CC=C1C (configuration not stated) (library stock concentration (final ~1000-fold dilution): 10 mM)
NF-kB SEAP reporter activity (RAW-Dual [2]; agonist: LPS (TLR4) 0.1 ug/mL): 1.05 | NF-kB SEAP reporter activity (RAW-Dual [2]; [6]): 0.988 | NF-kB SEAP reporter activity (RAW-Dual [2]; [7]): 0.639 | NF-kB SEAP reporter activity (RAW-Dual [2]; [8]): 0.767

COC1CC2CCC(C)C(O)(O2)C(=O)C(=O)N2CCCCC2C(=O)OC(C(C)CC2CCC(OP(C)(C)=O)C(OC)C2)CC(=O)C(C)C=C(C)C(O)C(OC)C(=O)C(C)CC(C)C=CC=CC=C1C (configuration not stated)
NF-kB SEAP reporter activity (RAW-Dual [1]; [4]): 1.34 | NF-kB SEAP reporter activity (RAW-Dual [1]; [5]): 1.24

Cl.Nc1ccc(N=Nc2ccccc2)c(N)n1 (library stock concentration (final ~1000-fold dilution): 10 mM)
NF-kB SEAP reporter activity (RAW-Dual [2]; agonist: LPS (TLR4) 0.1 ug/mL): 1.22 | NF-kB SEAP reporter activity (RAW-Dual [2]; [6]): 0.928 | NF-kB SEAP reporter activity (RAW-Dual [2]; [7]): 1.09 | NF-kB SEAP reporter activity (RAW-Dual [2]; [8]): 0.933

Cl.Nc1ccc(N=Nc2ccccc2)c(N)n1
NF-kB SEAP reporter activity (RAW-Dual [1]; [4]): 1.1 | NF-kB SEAP reporter activity (RAW-Dual [1]; [5]): 1.08

COc1ccc(-n2c(SCCCN3C(=O)c4cccc5cccc(c45)C3=O)nnc2-c2ccncc2)cc1
NF-kB SEAP reporter activity (RAW-Dual [1]; [4]): 1.08 | NF-kB SEAP reporter activity (RAW-Dual [1]; [5]): 1.32

COc1ccc(-n2c(SCCCN3C(=O)c4cccc5cccc(c45)C3=O)nnc2-c2ccncc2)cc1 (library stock concentration (final ~1000-fold dilution): 10 mM)
NF-kB SEAP reporter activity (RAW-Dual [2]; agonist: LPS (TLR4) 0.1 ug/mL): 2.06 | NF-kB SEAP reporter activity (RAW-Dual [2]; [6]): 1.17 | NF-kB SEAP reporter activity (RAW-Dual [2]; [7]): 1.3 | NF-kB SEAP reporter activity (RAW-Dual [2]; [8]): 2.18

Cc1cccc(CC(=O)N2CCc3c2ccc(-c2cn(C)c4ncnc(N)c24)c3F)n1
NF-kB SEAP reporter activity (RAW-Dual [1]; [4]): 0.857 | NF-kB SEAP reporter activity (RAW-Dual [1]; [5]): 1.2

Cc1cccc(CC(=O)N2CCc3c2ccc(-c2cn(C)c4ncnc(N)c24)c3F)n1 (library stock concentration (final ~1000-fold dilution): 10 mM)
NF-kB SEAP reporter activity (RAW-Dual [2]; agonist: LPS (TLR4) 0.1 ug/mL): 2.11 | NF-kB SEAP reporter activity (RAW-Dual [2]; [6]): 0.866 | NF-kB SEAP reporter activity (RAW-Dual [2]; [7]): 0.941 | NF-kB SEAP reporter activity (RAW-Dual [2]; [8]): 1.13
